Test [1] concerns ATF4. In words: ATF4 western blot, 293T cell lysate controls (ER stress induction). The conditions noted are these: 293T cells treated to induce ER stress, vs untreated control lysate. In general terms: Immunoblotting shows a protein as a band on a membrane.
The subject of test [2] is nontransgenic mice. In words: Pilot Morris water maze #1 (spatial learning and memory). The conditions noted are these: 24-hour probe trial; 0.1 and 0.25 mpk.
Test [3] concerns nontransgenic mice. In words: Contextual fear conditioning. As to conditions: 2.5 mpk single i.p. injection after foot shock; context test 24 hours later; first 4, second 4, total 8 min.
Test [4] relates to nontransgenic (NTG) mice. In words: Morris water maze #2, nontransgenic (NTG) mice. The conditions noted are these: 2.5 mpk in 50% DMSO/50% PEG; vs vehicle.

In the case of tunicamycin, the “ATF4 protein levels by western blotting” value in test [1] is “elevated levels”.

With `O=C(COc1ccc(Cl)cc1)NC1CCC(NC(=O)COc2ccc(Cl)cc2)CC1` (centres unmarked) [ISRIB], the “memory for the location of the hidden platform, multiple outcome measures” value in test [2] is “No significant improvement in memory”. Besides, the “freezing behavior vs vehicle (contextual fear memory)” value in test [3] is listed as “did not observe a significant difference in freezing behavior”. For the same compound, the “MWM training latency NTG Trial*ISRIB (linear mixed effects regression model)” value in test [4] is on record as 0.3 sec/day.

`C/C=C(/C)C(=O)O[C@H]1C(C)=C2[C@H]([C@@H]1OC(=O)CCCCCCC)[C@@](C)(OC(C)=O)C[C@H](OC(=O)CCC)[C@@]1(O)[C@H]2OC(=O)[C@@]1(C)O` [Thapsigargin, thapsigargin]: the “ATF4 protein levels by western blotting” value in test [1] was “elevated levels”.

The values above are taken from article PMC5075699.
